The source of these data is the supplement of paper PMC11417369.

± gives the standard deviation of the averaged measurements. The list shows a part of the results.

This test has as its system PfAP2-G AP2 domain (GST-tagged). Briefly: gcPBM binding intensity (ln(normalized median fluorescence intensity)); higher = stronger DNA binding. In a few lines:
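GST-tagged P. falciparum DNA-binding domains produced in E. coli were incubated for 1 h on an Agilent 4 × 180k array of primer-extended double-stranded 36-bp intergenic genomic probes with negative controls. Binding intensity is the highest Masliner-normalised natural-log median intensity across replicate spots of either probe orientation, with bound protein detected by Alexa488 anti-GST antibody at 488 nm.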
Take “TGTTTATATAATATTCTACACACCAACAACAAACAT [CACACA_site8087]”: the “gcPBM binding intensity (ln)” value worked out at 10.5 ± 0.42.
Under “TATAATATAATTAAAAGTACTTAAAAAAGAATGAAA [XGTACX_site1157]” stands 11.4 ± 0.79; under “CCGTATTCAAAAAGGAGTACACAATTATATGTTATA [XGTACX_site641]”, 11.7 ± 1.
As to “TTTTTAAAACATATCACACATATATATATATATATA [CACACA_site5991]”, the “gcPBM binding intensity (ln)” value stood at 10.1 ± 0.5.
Under “TATTTTTATAAAAATCGTACAAGTGATCCAATTTTT [XGTACX_site4402]” stands 11.3 ± 0.85.
Under “TTTATATAATTTTGTGGTACTTATGTGTGTATATTA [XGTACX_site706]” stands 11.2 ± 0.73; under “ATATAAATAATGTTGACACACACAATAATCTTATTA [CACACA_site9197]”, 10.05 ± 0.085; under “AAAATATGGATTCATGATATTAAATTTAATTTAATG [XGTACX_negctrl_site214]”, 9.95 ± 0.085.
As for “GTTATACTCATATATACACACATATGTAAATATATA [CACACA_site5764]”, the “gcPBM binding intensity (ln)” value came out at 10.2 ± 0.25.
Regarding “ATTATATTAGGTAATCAGTTAAATGTTTCCTTTTTA [CACACA_negctrl_site1229]”, the “gcPBM binding intensity (ln)” value was determined as 9.77 ± 0.085.
“ATACGAAAAAAAAAAAGTACACAAAAATATCTACAT [XGTACX_site2051]”: the “gcPBM binding intensity (ln)” value came out at 11.7 ± 1.1.
As to “TATTTTCAACATATTTGTACATATTTTATATTTTAA [XGTACX_site101]”, the “gcPBM binding intensity (ln)” value is 10.9 ± 0.46.
Under “CGCGCACCCAGACACACACACACACCGATATATATA [CACACA_site8687]” stands 10.4 ± 0.35.
Under “AAAAAAAAAAAAAGTACACACTTATAAAATATTATG [CACACA_site4639]” stands 11.6 ± 1.1; under “TAAATTATCTTTTTATGTACTTATTTTTATTATTTT [XGTACX_site3158]”, 11.4 ± 0.78.
Under “AAAATAAATCTGAATGGGGTATAATATATCTTTGTT [CACACA_negctrl_site744]” stands 9.855 ± 0.049; under “AAAAGGAACAGACACACACACATATATATATATATA [CACACA_site3587]”, 10.4 ± 0.69.
Regarding “TGCATACTAGCCAATTGTACATAATTTTATTTTAAA [XGTACX_site513]”, the “gcPBM binding intensity (ln)” value came to 10.9 ± 0.59.
For “ATTATGATTTTATAGAACTGAACATTTACATTAAAT [GTGCAC_negctrl_site192]”, the “gcPBM binding intensity (ln)” value was 9.855 ± 0.064.
In the case of “TGCTTTTATTTCTTCACACATATGTAAAAAAAAGAA [CACACA_site5906]”, the “gcPBM binding intensity (ln)” value was found to be 10.3 ± 0.51.
Under “AAAAAATTCTGGTACTGTACACATTTTTTTAAATTT [XGTACX_site6904]” stands 11.7 ± 1; under “ATTTATTATATATACACACATACATATATATATATA [CACACA_site2159]”, 10.04 ± 0.078; under “ATAACAAAATAAAACACACACACAAATGTACTTATA [CACACA_site8768]”, 11.4 ± 0.79.
Take “AAATAAAAGGTTGAGAGTACATTTTTGTGTATGTAT [XGTACX_site5547]”: the “gcPBM binding intensity (ln)” value is 10.9 ± 0.47.
With “AAAAAAAAAATACAACAAAGTTAAATAAATAAATAA [GTGCAC_negctrl_site402]”, the “gcPBM binding intensity (ln)” value came to 9.63 ± 0.042.
Under “AGCTCTCAAAATTATTCACACGTGTCCTGTTATATA [CACACA_site5415]” stands 10.3 ± 0.071; under “ATATTTCATTAATGAACACACAAAGAGGTATATAAA [CACACA_site1519]”, 10.5 ± 0.49.
Under ATATTTAAAAATATAGTGCAATTATTCTAATGTGTT stands 9.835 ± 0.078.
Under “GTGCTTATTTATACATGTACAAATGATAAGTTTGTA [XGTACX_site169]” stands 10.9 ± 0.44; under “GAAATAAATATATATGCATGTACTTTAATATTATTA [TGCATGCA_site904]”, 11.2 ± 0.61; under “TAAATATATTCATAAAGTACAAAGCAAAATTGTCTA [XGTACX_site7274]”, 10.8 ± 0.43.
For “TTATTAAAATATTCTAGTACATATAAAAGGAGAACA [XGTACX_site4374]”, the “gcPBM binding intensity (ln)” value came to 10.9 ± 0.67.
Consider “TTTTTTCTTTTATGTGAAATGTAATATTGTTATATA [GTGCAC_negctrl_site715]”, for which the “gcPBM binding intensity (ln)” value was determined as 9.77 ± 0.17.
Consider “AGGTGATTGATATATACACACATACCTATATTTATA [CACACA_site7348]”, for which the “gcPBM binding intensity (ln)” value stood at 9.78 ± 0.15.
In the case of “TGTTTATTTAATAATATTTTTTTTTTTATTATATTA [XGTACX_negctrl_site56]”, the “gcPBM binding intensity (ln)” value came out at 9.435 ± 0.078.
With “CACACAGGTAAAAAGGTGCAGTTGAAATATTCCTCA [GTGCAC_site9730]”, the “gcPBM binding intensity (ln)” value amounted to 10.1 ± 0.12.
With “ATATATTATTTTAAATGTACTCATAATAGAAATGTC [XGTACX_site40]”, the “gcPBM binding intensity (ln)” value is 11.5 ± 1.2.
Under “ATATAAAGAAAAGGAACACACAAATATATATATATA [CACACA_site463]” stands 9.86 ± 0.13.
Regarding “ACATCGATTTATATTCTGCACTGAAGAAACTACAAC [GTGCAC_site9967]”, the “gcPBM binding intensity (ln)” value was determined as 10.1 ± 0.16.
Turning to “ATTAAATATATTAAATGTACATAATATATATATATA [XGTACX_site5032]”, the “gcPBM binding intensity (ln)” value is 11.3 ± 0.68.
Consider “TCAAACCAGTTGATGTGTACACATATAGTAATAATT [XGTACX_site6014]”, for which the “gcPBM binding intensity (ln)” value amounted to 11.6 ± 0.89.
Turning to “TTTATTTGATGAACATGTACAAAAAAACAAAGAACA [XGTACX_site823]”, the “gcPBM binding intensity (ln)” value turned out to be 11.1 ± 0.48.
Regarding “TTATATTTTTACAAGAGTACATATATATATATATAT [XGTACX_site5383]”, the “gcPBM binding intensity (ln)” value amounted to 11.4 ± 1.1.
For “GTGCAATATTTATTTTGTACATATTTATCAATAAAC [XGTACX_site8297]”, the “gcPBM binding intensity (ln)” value is 11 ± 0.82.
Under “AAGAAAAAAAAAAAAAAAGATACTTTTTTAAAACTA [TGCATGCA_negctrl_site13]” stands 9.94 ± 0.17.
